Where “and” joins values, the source holds several entries; their conditions need not be identical. Equal entries are not always repeated. Inconclusive means that the source gave no clear call. Such entries were picked first, then a sample of the others. For some of these results: A potency beside an inconclusive call is a rough fit, not a confirmed value. Calls of active or inactive are those of the source. Unless noted, calls come from the whole dose curve; as a rule, active = well fitted curve in the direction sought with a large enough effect in the repeat runs; inconclusive = weak or mixed curves; inactive = no such curve, though single readings can be large; an effect the other way counts as inactive or inconclusive.
system: not listed separately; assay: qHTS assay to identify small molecule antagonists of the peroxisome proliferator-activated receptor gamma (PPARg) signaling pathway - cell viability counter screen (AID 743194); settings: PPARg-bla HEK293H viability, CellTiter-Glo luminescence, 17 h, co-treated with 50 nM rosiglitazone; activity change, negative = cytotoxicity: at 62.6 µM (top of the series) unless noted; note: nearly all actives have a fitted effect of over 55% in size; note: potency is the fitted concentration of half-maximal effect
Method in brief: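 Viability was measured as CellTiter-Glo luminescence in GeneBLAzer PPARg UAS-bla HEK293H cells. These cells had been exposed 17 h at 37 C to compounds together with rosiglitazone at 50 nM final, with the beta-lactamase readout taken in the same wells.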
% is set by controls: 0 for no effect and ±100 for the full control effect; tags give direction and shape of the fitted curve.

SMILES	Potency	activity change, negative = cytotoxicity
CCCCCCCCCOS(=O)(=O)O	inconclusive: 0.436 µM [cytotoxic, full curve, poor fit]	
NCC[C@H](O)C(=O)N[C@@H]1C[C@H](N)[C@@H](O[C@H]2O[C@H](CN)[C@@H](O)[C@H](O)[C@H]2O)[C@H](O)[C@H]1O[C@H]1O[C@H](CO)[C@@H](O)[C@H](N)[C@H]1O		inactive: 0.328% [at 0.55 µM]
CC(C)=CCl	inconclusive: 3.13 µM [rising, full curve, poor fit]	
CN1[C@@H]2CC[C@H]1CC(OC(=O)C(O)c1ccccc1)C2 (some centres undefined)		inactive: 15.4%
O=C1Nc2ccccc2C1=O	inconclusive: 0.686 µM [rising, partial curve, poor fit]	
C[Si]1(C)O[Si](C)(C)O[Si](C)(C)O[Si](C)(C)O1	inconclusive: 62.4 µM [rising, single point]	

system: not listed separately; assay: qHTS assay for small molecule agonists of the antioxidant response element (ARE) signaling pathway (AID 743202; active = well fitted activation curve with a large enough effect in the signal ratio in the repeat runs, not every such curve was filed as active; inconclusive = weak or mixed curves, or effect the other way; inactive = no such curve, though single readings can be large or run the other way; the % refers to the signal ratio; note: potency is the fitted concentration of half-maximal effect); settings: HepG2 ARE-bla reporter, beta-lactamase FRET, 16 h; activation: at 73.3 µM (top of the series) unless noted
Method in brief: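 Quantitative high-throughput format in HepG2 cells bearing an integrated ARE-beta-lactamase reporter. Compound exposure lasted 16 h at 37 C, and fluorescence was read 2 h after adding LiveBLAzer B/G substrate at room temperature.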

SMILES	activation	Potency
NCc1ccccc1Sc1ccccc1CO	inconclusive: -15%	
CCCCCCCCCOS(=O)(=O)O		inconclusive: 68.6 µM
NCC[C@H](O)C(=O)N[C@@H]1C[C@H](N)[C@@H](O[C@H]2O[C@H](CN)[C@@H](O)[C@H](O)[C@H]2O)[C@H](O)[C@H]1O[C@H]1O[C@H](CO)[C@@H](O)[C@H](N)[C@H]1O	inactive: 2.58% [at 0.756 µM]	
CN(C)CCc1c[nH]c2ccc(CS(=O)(=O)N3CCCC3)cc12	inactive: -9.84%	
O=C(O)/C=C/c1ccccc1	inactive: -1.35%	
C=C(C)C(=O)OC	inactive: 1.3%	
CC(C)=CCl	inconclusive: -10%	
CC(C)OC(=O)C(C(=O)OC(C)C)=C1SC=CS1		inconclusive: 21.1 µM [rising, partial curve]
CN1[C@@H]2CC[C@H]1CC(OC(=O)C(O)c1ccccc1)C2 (some centres undefined)	inactive: -7.02%	
O=Cc1cc2ccccc2o1	inconclusive: -1.65%	
O=C1Nc2ccccc2C1=O		active: 27.1 µM
Cc1ccc(O)c([N+](=O)[O-])c1	inactive: 12.5% [at 94.8 µM]	
COC(=O)c1ccc(C=O)cc1		inactive
NC(=O)c1cn(Cc2c(F)cccc2F)nn1	inactive: 0.525%	
CC(C)(C)c1nnc(NS(=O)(=O)c2ccc(N)cc2)s1	inactive: -15.5%	
Nc1ccc(C(=O)N2CC3CC(CN(Cc4ccccc4)C3)C2)cc1	inactive: -7.56%	
C/C=C1\C(=O)C[C@H]2[C@@H]3CCC4=CC(=O)CC[C@]4(C)[C@H]3CC[C@]12C		inconclusive: 0.95 µM [falling, partial curve, poor fit]

system: not listed separately; assay: qHTS assay for small molecule agonists of the antioxidant response element (ARE) signaling pathway - cell viability counter screen (AID 743203; calls by dose curve; note: nearly all actives have a fitted effect of over 55% in size; note: potency is the fitted concentration of half-maximal effect); settings: ARE-bla HepG2 viability, CellTiter-Glo luminescence, 16 h; viability change, negative = cytotoxic: at 73.3 µM (top of the series)
Method in brief: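 Seeded at 2,000 cells/well, ARE-bla HepG2 cells were incubated 5 hrs before compound addition. After 16 hrs of treatment at 37C with 5% CO2, CellTiter-Glo reagent was added and luminescence read 30 min later.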

SMILES	viability change, negative = cytotoxic	Potency
NCc1ccccc1Sc1ccccc1CO	inactive: 7.55%	
NCC[C@H](O)C(=O)N[C@@H]1C[C@H](N)[C@@H](O[C@H]2O[C@H](CN)[C@@H](O)[C@H](O)[C@H]2O)[C@H](O)[C@H]1O[C@H]1O[C@H](CO)[C@@H](O)[C@H](N)[C@H]1O	inactive: -0.425% [at 0.756 µM]	
CN1[C@@H]2CC[C@H]1CC(OC(=O)C(O)c1ccccc1)C2 (some centres undefined)	inactive: 4.54%	
CC1=C(C/C=C(\C)CCC[C@H](C)CCC[C@H](C)CCCC(C)C)C(=O)c2ccccc2C1=O		inconclusive: 0.335 µM [cytotoxic, full curve, poor fit]
C=CC(C)(O)CC/C=C(\C)CC (centres undefined)	inactive: 0.489%	

system: not listed separately; assay: qHTS assay for small molecule activators of the heat shock response signaling pathway (AID 743210; active = well fitted activation curve with a large enough effect in the signal ratio in the repeat runs, with a control signal flat, not every such curve was filed as active; inconclusive = weak or mixed curves; the % refers to the signal ratio;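 note: HeLa cells with beta-lactamase reporter driven by heat shock elements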); settings: HeLa HSE-bla reporter, beta-lactamase ratio, 5 h; activation: at 62.6 µM (top of the series) unless noted
Method in brief: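 HeLa HSE-bla cells, overnight plating; cpd in DMSO 5 h, 37 C; LiveBLAzer B/G FRET substrate 2.5 h RT; fluorescence intensity read.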

SMILES	activation	Potency
COCC(C)OC(C)=O (centres undefined)	inactive: -0.142%	
CC[N+](C)(CC)CC	inactive: 0.842%	
O=C1C(N(CO)C(=O)NCO)N(CO)C(=O)N1CO (centres undefined)		inactive
O=C(O)C(=O)Nc1cccc(-c2nn[nH]n2)c1	inactive: -0.53%	

target: Peroxisome proliferator-activated receptor delta (Homo sapiens) (UniProt Q03181); assay: qHTS assay to identify small molecule agonists of the peroxisome proliferator-activated receptor delta (PPARd) signaling pathway (AID 743212; calls by dose curve;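 note: HEK293H cells with PPARd UAS beta-lactamase reporter GeneBLAzer system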; note: potency is the fitted concentration of half-maximal effect); settings: HEK293H PPARd-UAS-bla, beta-lactamase FRET ratio, 17 h; activation: at 62.6 µM (top of the series) unless noted
Method in brief: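 HEK293H PPARd-bla cells; 5 h preincubation 37 C/5% CO2; compound (DMSO) 37 C; LiveBLAzer B/G FRET substrate 2 h RT; fluorescence intensity.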

UniProt Q03181, sequence (Q03181 whole entry, looked up): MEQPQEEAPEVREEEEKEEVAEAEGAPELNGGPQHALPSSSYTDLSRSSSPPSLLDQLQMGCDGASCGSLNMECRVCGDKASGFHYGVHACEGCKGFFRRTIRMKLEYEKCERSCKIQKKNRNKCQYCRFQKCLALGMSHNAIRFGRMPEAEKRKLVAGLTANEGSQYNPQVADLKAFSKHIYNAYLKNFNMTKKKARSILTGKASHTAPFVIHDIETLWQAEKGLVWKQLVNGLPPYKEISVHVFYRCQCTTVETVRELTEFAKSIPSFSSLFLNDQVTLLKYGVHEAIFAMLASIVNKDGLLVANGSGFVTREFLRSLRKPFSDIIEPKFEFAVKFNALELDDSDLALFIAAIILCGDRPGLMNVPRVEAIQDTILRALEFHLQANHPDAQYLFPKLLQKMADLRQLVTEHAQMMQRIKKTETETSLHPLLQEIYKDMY

SMILES	activation	Potency
CCCCCCCCCOS(=O)(=O)O	inconclusive: 0.243%	
CCCCCCCCCCOc1cc2c(=O)c(C(=O)OCC)c[nH]c2cc1OCC	inconclusive: 3.29% [at 5.95 µM]	
O=C(O)/C=C/c1ccccc1	inactive: 3.03%	
C[Si]1(C)O[Si](C)(C)O[Si](C)(C)O[Si](C)(C)O1		inconclusive: 61.6 µM [rising, single point]

system: not listed separately; assay: qHTS assay to identify small molecule antagonists of the peroxisome proliferator-activated receptor delta (PPARd) signaling pathway - cell viability counter screen (AID 743213); settings: PPARd-bla HEK293H viability, CellTiter-Glo luminescence, 17 h; viability change, negative = cytotoxic: at 62 µM (top of the series) unless noted; note: nearly all actives have a fitted effect of over 50% in size; note: potency is the fitted concentration of half-maximal effect
Method in brief: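 Viability counter-screen, qHTS format: PPARd-bla HEK293H, L165041 300 nM final, 17 h compound exposure at 37 C, CellTiter-Glo luminescence after 30 min RT.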

SMILES	viability change, negative = cytotoxic	Potency
COCC(C)OC(C)=O (centres undefined)	inactive: -9.41%	
CN(C)CCc1c[nH]c2ccc(CS(=O)(=O)N3CCCC3)cc12	inactive: 5.44%	
CCCCCCCCCCOc1cc2c(=O)c(C(=O)OCC)c[nH]c2cc1OCC		inconclusive: 150 nM [cytotoxic, single point]
FC(F)(F)C(F)(F)C(F)(F)C(F)(F)C(F)(F)C(F)(F)C(F)(F)C(F)(F)C(F)(F)C(F)(F)F	inactive: -11.7% [at 6.26 µM]	
CN1[C@@H]2CC[C@H]1CC(OC(=O)C(O)c1ccccc1)C2 (some centres undefined)	inactive: 5.13%	
O=C1Nc2ccccc2C1=O	inactive: -3.87%	
O=C1NC(=O)C(c2ccccc2)(c2ccccc2)N1		inconclusive: 2.44 µM [cytotoxic, full curve, poor fit] and inconclusive: 12.3 µM [cytotoxic, single point] and inconclusive: 2.11 µM [cytotoxic, full curve, poor fit]
Cc1ccc(O)c(C(=O)c2ccccc2)c1	inactive: -4.67% [at 80.4 µM]	

target: Peroxisome proliferator-activated receptor delta (Homo sapiens) (UniProt Q03181); assay: qHTS assay to identify small molecule antagonists of the peroxisome proliferator-activated receptor delta (PPARd) signaling pathway (AID 743215; active = well fitted inhibition curve with a large enough effect in the signal ratio in the repeat runs, not every such curve was filed as active; inconclusive = weak or mixed curves, or effect the other way; inactive = no such curve, though single readings can be large or run the other way; the % refers to the signal ratio;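 note: cells stimulated with agonist L165041 at 300 nM final during compound exposure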); settings: HEK293H PPARd-UAS-bla, beta-lactamase FRET ratio, antagonist, 17 h; ratio activity, negative = inhibition: at 62 µM (top of the series) unless noted
Method in brief: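 Inhibition of L165041-driven (300 nM final) PPARd signaling is scored in HEK293H UAS-bla cells. Exposure lasts 17 h at 37 C; beta-lactamase activity is then read by FRET substrate fluorescence after 2 h at room temperature.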

SMILES	ratio activity, negative = inhibition
O=C(O)/C=C/c1ccccc1	inconclusive: 8.47%
CCCCCCCCCCCCCCCCCC#N	inconclusive: 1.15% [at 80.4 µM]
CN1[C@@H]2CC[C@H]1CC(OC(=O)C(O)c1ccccc1)C2 (some centres undefined)	inconclusive: 2.26%
CC1(C)CC(N)CC(C)(C)N1	inactive: -0.428%
CC(C)(C)c1nnc(NS(=O)(=O)c2ccc(N)cc2)s1	inactive: -21.8%
